Assay results from article PMC4336329 (PLoS ONE, 2015).
The whole screen tested about 310,000 compounds, of which about 14,000 (4.5%) showed an effect of 50% or more. Effects have a minus sign here. The list shows a part of the results.

molecular target: human ether-à-go-go-related gene (hERG) potassium channel (human, UniProt Q12809); assay: primary screen, population patch clamp on CHO cells stably expressing hERG
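Further: peak tail current of the secondary pulse compared with the same well before compound.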

human ether-à-go-go-related gene (hERG) potassium channel, sequence (Q12809 whole entry, looked up): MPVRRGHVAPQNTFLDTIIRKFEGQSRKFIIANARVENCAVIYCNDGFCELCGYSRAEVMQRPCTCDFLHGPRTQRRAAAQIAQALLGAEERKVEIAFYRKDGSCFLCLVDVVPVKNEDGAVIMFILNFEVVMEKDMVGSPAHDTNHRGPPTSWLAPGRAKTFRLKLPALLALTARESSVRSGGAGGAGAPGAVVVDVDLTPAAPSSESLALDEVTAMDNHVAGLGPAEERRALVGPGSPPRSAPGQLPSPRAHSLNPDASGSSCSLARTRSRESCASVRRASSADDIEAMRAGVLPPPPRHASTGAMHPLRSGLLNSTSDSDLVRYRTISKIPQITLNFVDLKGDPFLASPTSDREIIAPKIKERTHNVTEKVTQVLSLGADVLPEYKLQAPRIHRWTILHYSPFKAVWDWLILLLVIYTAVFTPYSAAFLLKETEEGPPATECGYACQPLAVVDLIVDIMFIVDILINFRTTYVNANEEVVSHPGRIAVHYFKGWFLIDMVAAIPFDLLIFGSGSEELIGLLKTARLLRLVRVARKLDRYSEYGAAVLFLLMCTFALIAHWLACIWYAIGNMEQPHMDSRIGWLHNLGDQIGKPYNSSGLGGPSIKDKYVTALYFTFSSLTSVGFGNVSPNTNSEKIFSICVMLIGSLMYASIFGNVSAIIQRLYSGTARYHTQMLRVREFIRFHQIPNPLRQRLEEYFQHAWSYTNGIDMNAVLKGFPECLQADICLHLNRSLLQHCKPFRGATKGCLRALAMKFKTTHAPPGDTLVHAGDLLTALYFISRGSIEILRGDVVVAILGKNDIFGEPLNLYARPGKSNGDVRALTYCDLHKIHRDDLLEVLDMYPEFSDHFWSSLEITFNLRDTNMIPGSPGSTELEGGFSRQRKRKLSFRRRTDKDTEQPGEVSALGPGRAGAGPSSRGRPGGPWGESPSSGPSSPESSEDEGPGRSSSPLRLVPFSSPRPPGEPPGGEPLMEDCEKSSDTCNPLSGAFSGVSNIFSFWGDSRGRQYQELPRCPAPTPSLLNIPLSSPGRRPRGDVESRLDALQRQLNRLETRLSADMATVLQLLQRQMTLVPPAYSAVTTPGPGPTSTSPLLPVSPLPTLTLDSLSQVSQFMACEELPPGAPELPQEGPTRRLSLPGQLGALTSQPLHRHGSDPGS

SMILES	hERG current change (%, negative = inhibition) at 10uM
COc1ccc(C)cc1NC(=O)CN1CCN(S(=O)(=O)c2ccc3ccccc3c2)CC1	-0.107%
CC(O)C[NH+]=c1cc(-c2ccccc2)oc2ccc(Cl)cc12.F[B-](F)(F)F (stereo not drawn)	-69.4%
O=C(NC1CCCCC1)C1(c2ccccc2)CC1(Cl)Cl (stereo not drawn)	1.16%
CC(=O)Nc1ccc(C2(O)COc3ccccc3O2)cc1 (stereo not drawn)	8.8%
COc1ccc(C2=NNC(=O)CC2)cc1	19.7%
CSCC[C@H](NC(=O)[C@H](Cc1ccccc1)n1c(=O)[nH]c2ccccc2c1=O)C(=O)N1CCC[C@@H]1C(=O)O	23.6%
Cn1c(=O)c2c(nc(CN3CCOCC3)n2CC(=O)c2ccccc2)n(C)c1=O	7.1%
O=C(NCCOc1ccc(Cl)cc1)c1ccco1	-9.75%
COc1cccc(NC(=O)CSc2nnc(C)s2)c1	4.43%
Cc1ccc(NC(=O)C(C)Sc2nnc(C3CC3)n2C2CC2)cc1S(=O)(=O)N1CCOCC1 (stereo not drawn)	-51%
COc1ncnc2c1oc1ccccc12	9.91%
CCOC(=O)c1ccc(N2C(=O)c3n[nH]c(C)c3C2c2ccccc2)cc1 (stereo not drawn)	-1.55%
CCN(c1ccccc1)S(=O)(=O)c1cccc(C(=O)OCc2nc3sc(C)c(C)c3c(=O)[nH]2)c1	2.67%
c1ccc(Nc2nn[nH]n2)cc1	9.37%
O=C(COc1ccc(Cl)cc1)NCc1nnc(SCC(=O)NCc2ccc3c(c2)OCO3)o1	-5.72%
Cc1cc(Cn2nc(C(=O)NCC3CC3)cc2-c2ccccc2)on1	-35.3%
CCc1nnc(NC(=O)C2CCC(CNc3c(N4CCCCC4)c(=O)c3=O)CC2)s1 (stereo not drawn)	13.3%
O=C(Nc1ccccc1C(=O)O)C1=NN=CC1	8.51%
COc1ccc(N2CCN(C(=O)CCS(=O)(=O)c3ccc4c(c3)NC(=O)C(C)S4)CC2)cc1 (stereo not drawn)	18%
CCN1CCN(c2c(Cl)cccc2NC(=O)c2ccc([N+](=O)[O-])o2)CC1	-73.9%
O=C1c2cnc3nc(SCc4ccccc4)nn3c2CC2c3ccccc3CCN12 (stereo not drawn)	-23.7%
CNC(=O)NC(=O)C(C)OC(=O)CCCSc1nc2ccccc2s1 (stereo not drawn)	-7.96%
Nc1c(C(=O)c2ccc(Cl)cc2)sc2nsc(SCCN3CCOCC3)c12	5.78%
CC(C)CN1C(=O)NC(NC(=O)c2ccco2)(C(F)(F)F)C1=O (stereo not drawn)	-17.2%
